According to paper PMC12820563, “FoxP3 forms a head-to-head dimer in vivo and stabilizes its multimerization on adjacent microsatellites”:
This is one part of the list.

Target: T1, MBP-FoxP1dN (Mus musculus, UniProt P58462 326-579)
T1 sequence: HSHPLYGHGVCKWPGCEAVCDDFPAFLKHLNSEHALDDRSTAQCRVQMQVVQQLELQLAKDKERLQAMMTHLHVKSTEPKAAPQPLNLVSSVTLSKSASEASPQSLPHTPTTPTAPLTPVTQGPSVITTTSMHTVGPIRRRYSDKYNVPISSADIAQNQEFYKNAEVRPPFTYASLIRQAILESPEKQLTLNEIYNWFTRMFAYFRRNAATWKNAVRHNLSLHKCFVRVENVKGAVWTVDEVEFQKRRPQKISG
Assay: PD-seq (MBP pull-down with sequencing); 20 mM Tris-HCl pH 7.5, 100 mM NaCl, 1.5 mM MgCl2, 0.4 uM protein, 0.1 uM dsDNA library, 30 min, room temperature, amylose pull-down; high values mean tight binding
Conditions: protein: recombinant; tags: His6-MBP; chain copies: 2; dsDNA, one strand shown
How it was run: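 A fragment of mouse FoxP3 or FoxP1 without its N-terminus, carrying a His6-MBP tag and produced in E. coli, was combined at 0.4 µM with a 0.1 µM degenerate double-stranded DNA library filled in with Klenow. The mixture sat for 30 min at room temperature in Tris pH 7.5 buffer containing NaCl and MgCl2. Protein–DNA complexes were captured on amylose resin, washed three times, and the DNA was freed with proteinase K, barcoded by PCR and sequenced on Illumina. Binding is expressed as reads-per-million enrichment of pull-down over input, with replicates pooled.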

How did the binding signal turn out when “GATGATTGTTCTCCCAGCTGATGAATTACTGTTCTCGAGTAAACAAATTTTCCTAATCTTTCTGTTCAAGCGCCATCTAC” was run?
Its binding signal is 1.05 RPM ratio (pull-down/input).

Which binding signal does the source give for “GATGATTGTTCTCCCAGCTGATGAATTTTGGCAGTCGAGTAAACAAATTTTCCTAATCTTTCTGTTCAAGCGCCATCTAC” here?
Its binding signal is 0.907 RPM ratio (pull-down/input).

Which binding signal does the source give for “GATGATTGTTCTCCCAGCTGATGAATTGAAATGATCGAGTAAACAAATTTTCCTAATCTTTCTGTTCAAGCGCCATCTAC” here?
The binding signal was 0.862 RPM ratio (pull-down/input).

With “GATGATTGTTCTCCCAGCTGATGAATTGGAAGGGTCGAGTAAACAAATTTTCCTAATCTTTCTGTTCAAGCGCCATCTAC” as the sequence, how does the binding signal read?
The binding signal was 0.816 RPM ratio (pull-down/input).

“GATGATTGTTCTCCCAGCTGATGAATTAACGACATCGAGTAAACAAATTTTCCTAATCTTTCTGTTCAAGCGCCATCTAC” was tested. Which binding signal did it give?
The binding signal was 1.15 RPM ratio (pull-down/input).

With “GATGATTGTTCTCCCAGCTGATGAATTAAGGTGATCGAGTAAACAAATTTTCCTAATCTTTCTGTTCAAGCGCCATCTAC” as the sequence, how does the binding signal read?
The binding signal was 0.906 RPM ratio (pull-down/input).

For “GATGATTGTTCTCCCAGCTGATGAATTCGTCTGTTCGAGTAAACAAATTTTCCTAATCTTTCTGTTCAAGCGCCATCTAC”, which binding signal is on record?
Its binding signal is 0.828 RPM ratio (pull-down/input).

Which binding signal does the source give for “GATGATTGTTCTCCCAGCTGATGAATTACGGCACTCGAGTAAACAAATTTTCCTAATCTTTCTGTTCAAGCGCCATCTAC” here?
The binding signal was 0.941 RPM ratio (pull-down/input).

Which binding signal does the source give for “GATGATTGTTCTCCCAGCTGATGAATTTAAGCTCTCGAGTAAACAAATTTTCCTAATCTTTCTGTTCAAGCGCCATCTAC” here?
The binding signal was 0.836 RPM ratio (pull-down/input).

Which binding signal does the source give for “GATGATTGTTCTCCCAGCTGATGAATTGAAGCCATCGAGTAAACAAATTTTCCTAATCTTTCTGTTCAAGCGCCATCTAC” here?
The binding signal was 0.824 RPM ratio (pull-down/input).

For “GATGATTGTTCTCCCAGCTGATGAATTAGCGTGTTCGAGTAAACAAATTTTCCTAATCTTTCTGTTCAAGCGCCATCTAC”, which binding signal is on record?
Its binding signal is 0.937 RPM ratio (pull-down/input).

“GATGATTGTTCTCCCAGCTGATGAATTATAGGGATCGAGTAAACAAATTTTCCTAATCTTTCTGTTCAAGCGCCATCTAC” was tested. Which binding signal did it give?
Its binding signal is 0.912 RPM ratio (pull-down/input).

With “GATGATTGTTCTCCCAGCTGATGAATTTTTATATTCGAGTAAACAAATTTTCCTAATCTTTCTGTTCAAGCGCCATCTAC” as the sequence, how does the binding signal read?
Its binding signal is 1.1 RPM ratio (pull-down/input).

With “GATGATTGTTCTCCCAGCTGATGAATTCTCAGCGTCGAGTAAACAAATTTTCCTAATCTTTCTGTTCAAGCGCCATCTAC” as the sequence, how does the binding signal read?
The binding signal was 0.837 RPM ratio (pull-down/input).

How did the binding signal turn out when “GATGATTGTTCTCCCAGCTGATGAATTGCTCCGGTCGAGTAAACAAATTTTCCTAATCTTTCTGTTCAAGCGCCATCTAC” was run?
The binding signal was 0.888 RPM ratio (pull-down/input).

Which binding signal does the source give for “GATGATTGTTCTCCCAGCTGATGAATTAGTGATCTCGAGTAAACAAATTTTCCTAATCTTTCTGTTCAAGCGCCATCTAC” here?
Its binding signal is 0.985 RPM ratio (pull-down/input).

“GATGATTGTTCTCCCAGCTGATGAATTGGACAAATCGAGTAAACAAATTTTCCTAATCTTTCTGTTCAAGCGCCATCTAC” was tested. Which binding signal did it give?
The binding signal was 1.05 RPM ratio (pull-down/input).

How did the binding signal turn out when “GATGATTGTTCTCCCAGCTGATGAATTTAGGTCGTCGAGTAAACAAATTTTCCTAATCTTTCTGTTCAAGCGCCATCTAC” was run?
The binding signal was 0.87 RPM ratio (pull-down/input).

With “GATGATTGTTCTCCCAGCTGATGAATTTCGACGATCGAGTAAACAAATTTTCCTAATCTTTCTGTTCAAGCGCCATCTAC” as the sequence, how does the binding signal read?
The binding signal was 0.836 RPM ratio (pull-down/input).

How did the binding signal turn out when “GATGATTGTTCTCCCAGCTGATGAATTCTTCTAGTCGAGTAAACAAATTTTCCTAATCTTTCTGTTCAAGCGCCATCTAC” was run?
Its binding signal is 0.874 RPM ratio (pull-down/input).

“GATGATTGTTCTCCCAGCTGATGAATTAATGACGTCGAGTAAACAAATTTTCCTAATCTTTCTGTTCAAGCGCCATCTAC” was tested. Which binding signal did it give?
The binding signal was 0.95 RPM ratio (pull-down/input).

With “GATGATTGTTCTCCCAGCTGATGAATTACCACTTTCGAGTAAACAAATTTTCCTAATCTTTCTGTTCAAGCGCCATCTAC” as the sequence, how does the binding signal read?
Its binding signal is 1.07 RPM ratio (pull-down/input).

Which binding signal does the source give for “GATGATTGTTCTCCCAGCTGATGAATTGTTCTATTCGAGTAAACAAATTTTCCTAATCTTTCTGTTCAAGCGCCATCTAC” here?
Its binding signal is 1.34 RPM ratio (pull-down/input).

With “GATGATTGTTCTCCCAGCTGATGAATTATTCAGGTCGAGTAAACAAATTTTCCTAATCTTTCTGTTCAAGCGCCATCTAC” as the sequence, how does the binding signal read?
The binding signal was 0.916 RPM ratio (pull-down/input).

“GATGATTGTTCTCCCAGCTGATGAATTTAAATCATCGAGTAAACAAATTTTCCTAATCTTTCTGTTCAAGCGCCATCTAC” was tested. Which binding signal did it give?
Its binding signal is 0.98 RPM ratio (pull-down/input).

For “GATGATTGTTCTCCCAGCTGATGAATTAGCCGGGTCGAGTAAACAAATTTTCCTAATCTTTCTGTTCAAGCGCCATCTAC”, which binding signal is on record?
The binding signal was 0.765 RPM ratio (pull-down/input).

For “GATGATTGTTCTCCCAGCTGATGAATTCGTTGCGTCGAGTAAACAAATTTTCCTAATCTTTCTGTTCAAGCGCCATCTAC”, which binding signal is on record?
Its binding signal is 0.998 RPM ratio (pull-down/input).

How did the binding signal turn out when “GATGATTGTTCTCCCAGCTGATGAATTTCTCATGTCGAGTAAACAAATTTTCCTAATCTTTCTGTTCAAGCGCCATCTAC” was run?
Its binding signal is 0.813 RPM ratio (pull-down/input).

“GATGATTGTTCTCCCAGCTGATGAATTCTTCATTTCGAGTAAACAAATTTTCCTAATCTTTCTGTTCAAGCGCCATCTAC” was tested. Which binding signal did it give?
The binding signal was 0.908 RPM ratio (pull-down/input).

With “GATGATTGTTCTCCCAGCTGATGAATTTCGGTACTCGAGTAAACAAATTTTCCTAATCTTTCTGTTCAAGCGCCATCTAC” as the sequence, how does the binding signal read?
Its binding signal is 0.848 RPM ratio (pull-down/input).

For “GATGATTGTTCTCCCAGCTGATGAATTAGCTGGTTCGAGTAAACAAATTTTCCTAATCTTTCTGTTCAAGCGCCATCTAC”, which binding signal is on record?
The binding signal was 0.887 RPM ratio (pull-down/input).
